Experimental data from the supplement of paper PMC10037445.
In all, about 2,900 compounds were measured (“IRF Lucia reporter activity, fold change vs agonist alone”: median about 0.9, highest 2% from about 2.8 on). Some of the results follow.

Tests used:
RAW-Dual [1] = assay: IRF Lucia reporter activity, fold change vs agonist alone; cytotoxicity flag (confluency mask): not cytotoxic; higher = enhanced IRF activity
Summary of the method: (§1)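 Cytotoxic wells were those whose IncuCyte confluency was below 70% of agonist controls in both mask sets. The cells were RAW-Dual macrophages at 50,000 cells/well in DMEM on 384-well plates, dosed with 50 nL of library stock by pin tool, stimulated with a PRR agonist 1 h later, and kept at 37 °C, 5% CO2 for 20 hours. IRF and NF-κB reporter activity, as fold change over agonist-alone wells, came from supernatant read by QuantiLuc luminescence and QuantiBlue absorbance, respectively.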

RAW-Dual [2] = assay: IRF Lucia reporter activity, fold change vs agonist alone; higher = enhanced IRF activity; details: library stock concentration (final ~1000-fold dilution): 10 mM, agonist: MPLA (TLR4) […]
Summary of the method: as §1

RAW-Dual [3] = assay: IRF Lucia reporter activity, fold change vs agonist alone; cytotoxicity flag (confluency mask): cytotoxic (confluency <70% of control); higher = enhanced IRF activity
Summary of the method: as §1

[4] = agonist: 3'3'-cGAMP (STING) 10 ug/mL
[5] = cytotoxicity flag (confluency mask): not cytotoxic
[6] = cytotoxicity flag (confluency mask): cytotoxic (confluency <70% of control)

CCC(C)SSc1ncc[nH]1 (configuration not stated) (library stock concentration (final ~1000-fold dilution): 10 mM)
IRF Lucia reporter activity (RAW-Dual [1]; [4]): 0.0255 | IRF Lucia reporter activity (RAW-Dual [1]; agonist: LPS (TLR4) 0.1 ug/mL): 0.263

CC1CCN(CCC2CCCN2S(=O)(=O)c2cccc(O)c2)CC1.Cl (configuration not stated)
IRF Lucia reporter activity (RAW-Dual [2]; [5]): 1.05

CC1CCN(CCC2CCCN2S(=O)(=O)c2cccc(O)c2)CC1.Cl (configuration not stated) (library stock concentration (final ~1000-fold dilution): 10 mM)
IRF Lucia reporter activity (RAW-Dual [1]; [4]): 1.07 | IRF Lucia reporter activity (RAW-Dual [1]; agonist: LPS (TLR4) 0.1 ug/mL): 1.07

COc1cc(Nc2nc3ccccc3nc2NS(=O)(=O)c2ccc(NC(=O)c3ccc(C)c(OC)c3)cc2)cc(OC)c1 (library stock concentration (final ~1000-fold dilution): 10 mM)
IRF Lucia reporter activity (RAW-Dual [1]; [4]): 1.01 | IRF Lucia reporter activity (RAW-Dual [1]; agonist: LPS (TLR4) 0.1 ug/mL): 0.958

COc1cc(Nc2nc3ccccc3nc2NS(=O)(=O)c2ccc(NC(=O)c3ccc(C)c(OC)c3)cc2)cc(OC)c1
IRF Lucia reporter activity (RAW-Dual [2]; [5]): 0.756

O=C1CCc2cc(OCCCCc3nnnn3C3CCCCC3)ccc2N1
IRF Lucia reporter activity (RAW-Dual [2]; [5]): 0.939

O=C1CCc2cc(OCCCCc3nnnn3C3CCCCC3)ccc2N1 (library stock concentration (final ~1000-fold dilution): 10 mM)
IRF Lucia reporter activity (RAW-Dual [1]; [4]): 1.05 | IRF Lucia reporter activity (RAW-Dual [1]; agonist: LPS (TLR4) 0.1 ug/mL): 0.84

CN1C2=C3N=c4ccccc4=C3CCN2C(=O)c2ccccc21.Cl (library stock concentration (final ~1000-fold dilution): 10 mM)
IRF Lucia reporter activity (RAW-Dual [1]; [4]): 1.19 | IRF Lucia reporter activity (RAW-Dual [1]; agonist: LPS (TLR4) 0.1 ug/mL): 1.32

CN1C2=C3N=c4ccccc4=C3CCN2C(=O)c2ccccc21.Cl
IRF Lucia reporter activity (RAW-Dual [2]; [5]): 1.19

Cc1ccc2c(c1)c1c(n2CCc2ccc(C)nc2)CCN(C)C1.Cl.Cl (library stock concentration (final ~1000-fold dilution): 10 mM)
IRF Lucia reporter activity (RAW-Dual [1]; [4]): 0.767 | IRF Lucia reporter activity (RAW-Dual [1]; agonist: LPS (TLR4) 0.1 ug/mL): 1.39

Cc1ccc2c(c1)c1c(n2CCc2ccc(C)nc2)CCN(C)C1.Cl.Cl
IRF Lucia reporter activity (RAW-Dual [2]; [5]): 0.966

COc1cc(OC)cc(-c2cc3cnc(N)nc3nc2NC(=O)NC(C)(C)C)c1 (library stock concentration (final ~1000-fold dilution): 10 mM)
IRF Lucia reporter activity (RAW-Dual [1]; [4]): 0.693 | IRF Lucia reporter activity (RAW-Dual [1]; agonist: LPS (TLR4) 0.1 ug/mL): 0.628

Nc1ncnc2c1c(-c1cnc3[nH]ccc3c1)nn2C1CCCC1
IRF Lucia reporter activity (RAW-Dual [2]; [5]): 1.04

Nc1ncnc2c1c(-c1cnc3[nH]ccc3c1)nn2C1CCCC1 (library stock concentration (final ~1000-fold dilution): 10 mM)
IRF Lucia reporter activity (RAW-Dual [1]; [4]): 1.06 | IRF Lucia reporter activity (RAW-Dual [1]; agonist: LPS (TLR4) 0.1 ug/mL): 0.32

COc1ccc(C(=O)C2CCN(CC(=O)N(Cc3nc4c(c(=O)[nH]3)COCC4)CC3CC3)CC2)cc1
IRF Lucia reporter activity (RAW-Dual [2]; [5]): 1.16

COc1ccc(C(=O)C2CCN(CC(=O)N(Cc3nc4c(c(=O)[nH]3)COCC4)CC3CC3)CC2)cc1 (library stock concentration (final ~1000-fold dilution): 10 mM)
IRF Lucia reporter activity (RAW-Dual [1]; [4]): 1.17 | IRF Lucia reporter activity (RAW-Dual [1]; agonist: LPS (TLR4) 0.1 ug/mL): 1.25

CCCCc1nc(C)c(CC(=S)N(C)C)c(=O)n1Cc1ccc(-c2ccccc2-c2nnn[nH]2)cc1 (library stock concentration (final ~1000-fold dilution): 10 mM)
IRF Lucia reporter activity (RAW-Dual [1]; [4]): 0.998 | IRF Lucia reporter activity (RAW-Dual [1]; agonist: LPS (TLR4) 0.1 ug/mL): 0.946

CCCCc1nc(C)c(CC(=S)N(C)C)c(=O)n1Cc1ccc(-c2ccccc2-c2nnn[nH]2)cc1
IRF Lucia reporter activity (RAW-Dual [2]; [5]): 1.18

COc1ccc(CN2CCN(C(c3ccc(F)cc3)c3ccc(F)cc3)CC2)c(OC)c1OC.Cl.Cl (library stock concentration (final ~1000-fold dilution): 10 mM)
IRF Lucia reporter activity (RAW-Dual [1]; [4]): 0.288 | IRF Lucia reporter activity (RAW-Dual [1]; agonist: LPS (TLR4) 0.1 ug/mL): 2.33

COc1ccc(CN2CCN(C(c3ccc(F)cc3)c3ccc(F)cc3)CC2)c(OC)c1OC.Cl.Cl
IRF Lucia reporter activity (RAW-Dual [2]; [5]): 2.06

CN(C)CC/C=C1/c2ccccc2Sc2ccc(Cl)cc21.Cl
IRF Lucia reporter activity (RAW-Dual [2]; [6]): 1.89

CN(C)CC/C=C1/c2ccccc2Sc2ccc(Cl)cc21.Cl (library stock concentration (final ~1000-fold dilution): 10 mM)
IRF Lucia reporter activity (RAW-Dual [3]; [4]): 0.955 | IRF Lucia reporter activity (RAW-Dual [3]; agonist: LPS (TLR4) 0.1 ug/mL): 2.08

O=C1Nc2ccc(Cl)cc2C(C#CC2CC2)(C(F)(F)F)O1 (configuration not stated)
IRF Lucia reporter activity (RAW-Dual [2]; [6]): 1.07

O=C1Nc2ccc(Cl)cc2C(C#CC2CC2)(C(F)(F)F)O1 (configuration not stated) (library stock concentration (final ~1000-fold dilution): 10 mM)
IRF Lucia reporter activity (RAW-Dual [3]; [4]): 0.956 | IRF Lucia reporter activity (RAW-Dual [3]; agonist: LPS (TLR4) 0.1 ug/mL): 1.22

CCCSc1nc(NC2CC2c2ccc(F)c(F)c2)c2nnn(C3CC(OCCO)C(O)C3O)c2n1 (configuration not stated) (library stock concentration (final ~1000-fold dilution): 10 mM)
IRF Lucia reporter activity (RAW-Dual [3]; [4]): 0.711 | IRF Lucia reporter activity (RAW-Dual [3]; agonist: LPS (TLR4) 0.1 ug/mL): 0.762

CCCSc1nc(NC2CC2c2ccc(F)c(F)c2)c2nnn(C3CC(OCCO)C(O)C3O)c2n1 (configuration not stated)
IRF Lucia reporter activity (RAW-Dual [2]; [6]): 0.845

CN(C)c1ccc(O)c2c1CC1CC3C(N(C)C)C(=O)C(C(N)=O)=C(O)C3(O)C(=O)C1=C2O (configuration not stated) (library stock concentration (final ~1000-fold dilution): 5 mM)
IRF Lucia reporter activity (RAW-Dual [1]; [4]): 0.71 | IRF Lucia reporter activity (RAW-Dual [1]; agonist: LPS (TLR4) 0.1 ug/mL): 0.397
